# Reference: PubChem BioAssay AID488969 (Vanderbilt High Throughput Screening Facility, 2010)
# Over roughly 110,000 compounds, “z-score” has its median near -0.1; the highest 2% begin near 2. This is one part of the list. Activity calls are given as the source filed them.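 How the source made its calls: active means z-score in the third read window above 3 or below -3; inactive means the rest.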
# Target: Metabotropic glutamate receptor 8 (Rattus norvegicus) (UniProt P70579)
# Assay: rat mGluR8 modulators via GIRK flux, primary screen, cell-based, thallium flux, HTS (AID 488969)
# Settings: HEK293 rat mGluR8, GIRK (G protein-gated inwardly rectifying potassium channel) thallium flux, FluoZin2; at 10 µM; stronger effect = higher value; submaximal glutamate (EC20) added with thallium
# Sequence of UniProt P70579 (P70579 whole entry, looked up): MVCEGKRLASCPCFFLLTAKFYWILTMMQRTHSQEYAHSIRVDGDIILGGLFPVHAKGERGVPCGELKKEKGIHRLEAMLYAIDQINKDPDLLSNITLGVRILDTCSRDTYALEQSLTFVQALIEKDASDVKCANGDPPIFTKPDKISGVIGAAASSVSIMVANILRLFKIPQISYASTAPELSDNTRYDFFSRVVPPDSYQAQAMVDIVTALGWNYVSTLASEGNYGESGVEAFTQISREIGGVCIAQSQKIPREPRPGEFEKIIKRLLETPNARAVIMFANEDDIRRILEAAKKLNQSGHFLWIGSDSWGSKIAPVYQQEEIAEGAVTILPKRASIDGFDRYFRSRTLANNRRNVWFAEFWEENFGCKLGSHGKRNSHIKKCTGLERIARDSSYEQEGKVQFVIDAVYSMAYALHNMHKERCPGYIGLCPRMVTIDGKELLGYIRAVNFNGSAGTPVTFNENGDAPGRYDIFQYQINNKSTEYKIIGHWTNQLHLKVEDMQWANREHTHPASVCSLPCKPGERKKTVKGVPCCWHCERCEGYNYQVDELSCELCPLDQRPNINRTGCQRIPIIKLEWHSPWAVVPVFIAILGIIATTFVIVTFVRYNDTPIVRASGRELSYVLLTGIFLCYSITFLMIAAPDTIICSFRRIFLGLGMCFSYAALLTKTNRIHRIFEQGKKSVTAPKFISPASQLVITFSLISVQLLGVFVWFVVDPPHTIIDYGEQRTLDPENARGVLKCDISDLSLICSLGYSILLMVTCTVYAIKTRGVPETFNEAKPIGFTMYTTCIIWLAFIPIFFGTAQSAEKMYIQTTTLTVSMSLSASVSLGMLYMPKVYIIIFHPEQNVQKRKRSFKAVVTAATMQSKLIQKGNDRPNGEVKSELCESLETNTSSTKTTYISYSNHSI
row,Compound,z-score
1,COc1ccccc1CNC(=O)c1c(O)c2cc(OC)c(OC)cc2[nH]c1=O,0.0684
2,CC(C)(C)c1nnc(NC(=O)NS(=O)(=O)c2ccccc2)s1,0.0318
3,NS(=O)(=O)c1ccc(CNC(=O)/C=C/c2c(Cl)cccc2Cl)cc1,-0.309
4,COc1ccc(-c2csc(NC(=O)CCn3cnc4ccccc4c3=O)n2)cc1OC,-0.202
5,O=C(OCC(=O)N1CCOCC1)c1ccccc1Cc1ccccc1,-0.121
6,O=C(CCc1ccc(Oc2cc([N+](=O)[O-])cc([N+](=O)[O-])c2)cc1)NC1CCCC1,-0.239
7,COc1cccc(C(=O)N/N=C2\SCC(=O)N2Cc2ccc3c(c2)OCO3)c1,-0.191
8,COc1ccc(-n2c(=O)c3ccccc3n(CC(=O)NC3CCCC3)c2=O)cc1,0.339
9,Cc1ccc(NC(=O)CSc2nnc(C)c(=O)n2N)c(C)c1,-0.162
10,O=C1c2ccccc2C(O)(c2ncc[nH]2)N1CCc1ccccc1 (centres undefined),-0.168
11,CC(=O)c1cc(F)c(N2CCN(C(=O)COc3ccc(F)cc3)CC2)cc1C,-0.112
12,Cc1cc2c(c(=O)o1)C(Cc1ccccc1)C(C#N)=C(N)O2 (centres undefined),-0.112
13,COc1nc(NCCc2ccc(OC)c(OC)c2)nc(NC(C)(C)CO)n1,-0.122
14,COc1ccc(C2(C(=O)Nc3cc(C)on3)CCOCC2)cc1,-0.455
15,Cn1nnnc1SCC(=O)N1CCOCC1,0.18
16,Cc1ccc(NC(=O)NC2CCCCC2)cc1Cl,0.508
17,N#C/C(=C\c1ccc(F)cc1)c1n[nH]c(Cn2cncn2)n1,0.359
18,O=C(Cn1c(NCCCO)nc2ccccc21)c1cccs1,0.589
19,CCOC(=O)n1c(=O)n(Cc2ccccc2Cl)c2ccccc21,-0.816
20,COc1ccc(C2(CNC(=O)c3cccc([N+](=O)[O-])c3)CCOCC2)cc1,0.306
21,CCC(OC(=O)c1cccs1)C(=O)NCc1ccco1 (centres undefined),0.805
22,O=P(OC1CCCCC1)(OC1CCCCC1)C(O)c1ccccc1 (centres undefined),-0.904
23,COc1cc2c(C(=O)Nc3ccc4c(c3)OCO4)cn(CC(C)C)c(=O)c2cc1OC,-1.29

row,Compound,z-score
1,Cc1ccc(S(=O)(=O)N2CCCOC2CNC(=O)C(=O)NCc2cccs2)cc1 (centres undefined),-0.187
2,O=C(CSCc1ccc(Cl)cc1)NCc1ccccn1,-0.143
3,Cc1ccc(C(=O)COC(=O)c2cccs2)cc1,-0.36
4,COc1ccccc1OCCOCCOc1ccc(C)cc1Br,-0.295
5,N#CC1(c2ccccc2)CCCN1C(=O)c1ccccc1Cl (centres undefined),0.0128
6,Brc1ccc(-c2noc(CCc3ccccc3)n2)cc1,-0.13
7,Cc1cccc(NC(=O)Nc2ccc(C)c(C)c2)n1,-0.316
8,CCc1nc2c(cnn2-c2ccc(Cl)cc2)c(=O)n1-c1ccc2c(c1)OCCO2,0.714
9,COc1ccc(OC)c(N(CC(=O)N2CCCCC2)S(=O)(=O)c2ccc(OC)c(OC)c2)c1,-0.383
10,Cc1ccc2cc(C(=O)O)c(C)nc2c1,-0.0838
11,O=C(CN1CCCC1)Nc1nnc(-c2cccs2)s1,-0.187
12,COc1cc(N2C(=O)CSC23C(=O)Nc2ccccc23)cc(OC)c1OC (centres undefined),0.652
13,O=C(N/N=C/C=C/c1ccc([N+](=O)[O-])cc1)c1cccs1,-0.641
14,CC(=O)Nc1ccc(S(=O)(=O)NCc2csc(C)n2)cc1,-0.0143
15,CN(C)CCn1c(=S)[nH]c2ccccc2c1=O,-0.191
16,CCOc1ccc2nc3c(cc2c1)CN(CCOC)C(=NC)S3,0.0857
17,O=C(C1=NN(c2ccccc2)C2C(=O)N(c3ccccc3)C(=O)C12)c1ccccc1 (centres undefined),-0.164
18,Cc1cc(/C=C(\C#N)C(=O)O)c(C)n1CC(C)C,-0.126
19,O=C(COc1ccccc1)N1CCN(S(=O)(=O)c2ccc(Cl)cc2)CC1,-0.0624
20,CC1=CC2=NC(=O)/C(=C\c3ccc(-c4ccc(Cl)cc4)o3)C(=N)N2O1,-0.056
21,Cc1nc(NC(=O)/C=C/c2ccco2)sc1C,0.205
22,CC12CN(C(=O)c3ccccc3)C3(C#N)CC1CCC23C (centres undefined),0.729
23,CCOC(=O)c1c(/N=C/c2cccc([N+](=O)[O-])c2O)sc(C)c1C,-0.0716

row,Compound,z-score
1,Cc1ccc(N2C(=O)c3cccc4c(N5CCN(C)CC5)ccc(c34)C2=O)c2cccnc12,-1.74
2,NC(=S)N=Nc1c(O)n(Cc2ccccc2)c2ccccc12,0.17
3,O=C(CCN1C(=O)c2ccccc2C1=O)Nc1ccc(F)cc1,0.554
4,O=C1C2C(C(=O)N1c1ccc3c(c1)OCO3)C1C=CC2C12CC2 (centres undefined),0.198
5,COc1ccc(-n2nnnc2SCC(N)=O)cc1,0.327
6,CCSc1nnc(NC(=O)c2cc(C)oc2C)s1,0.633
7,COc1ccc(N2C(=O)CS/C2=C\[N+](=O)[O-])cc1,0.156
8,NC(=O)c1ccc(F)cc1,0.635
9,Cc1ccc(Cl)cc1N1CCN(S(C)(=O)=O)CC1,0.079
10,CCOc1ccc(NC(=O)Cn2nnc(C(=O)NCCc3ccc(OC)c(OC)c3)c2N)cc1,-0.555
11,CCOc1cc2c3c(c1)C(C)CC(C)(C)N3C(=O)C2=O (centres undefined),-0.169
12,COc1cc2c(cc1OC)C(c1ccc3c(c1)OCO3)CC(=O)N2 (centres undefined),1.52
13,CCCOc1ccc(Cc2nc(N)nc(N)n2)cc1,-0.499
14,Nc1nnc(SCCCC(=O)c2ccc(F)cc2)s1,-0.825
15,Cc1cc(C(=O)CSc2nnnn2C)c(C)n1-c1ccc2c(c1)OCCO2,0.341
16,O=C(CCCN1C(=O)c2ccccc2C1=O)Nc1ccc(S(=O)(=O)N2CCOCC2)cc1,0.201
17,CCCCNC(=O)CSc1nc2ccc(N3CCOCC3)cc2c(=O)n1CCc1ccccc1,1.19
18,O=C(NCN1C(=O)C2C3C=CC(C3)C2C1=O)Nc1nncs1 (centres undefined),1.07
19,CCC(C)NCCOCCOc1ccc(F)cc1 (centres undefined),-0.0108
20,CC(=O)N(C(C)=O)S(=O)(=O)c1ccc(N=NN2CCCCC2)cc1,-0.235
21,O=C(COC(=O)C(O)c1ccccc1)c1ccc2c(c1)OCCO2 (centres undefined),0.13
22,O=C(Nc1cc(F)cc(F)c1)c1ccc(NCCc2ccccc2)c([N+](=O)[O-])c1,-0.466
23,COc1ccc(C)cc1S(=O)(=O)Nc1cccc(Cl)c1,-0.327

row,Compound,z-score
1,COC(=O)C(NNc1ccccc1C)(NC(=O)c1ccc(F)cc1)C(F)(F)F (centres undefined),-0.187
2,Cc1ccc(NC(=O)C2(S(=O)(=O)c3ccc(C)cc3)CC2)cc1,-0.214
3,COc1cc(N=c2ssnc2Cl)c(OC)cc1Cl,0.15
4,COc1ccc(-n2nnc3c(SCc4ccccc4)ncnc32)cc1,-0.518
5,COc1ccc(NCc2nnc(SCC(=O)Nc3cc(C(F)(F)F)ccc3Cl)o2)cc1,-0.363
6,CCCCn1c(SCC(=O)NCc2ccco2)nc2c(sc3ccccc32)c1=O,-0.00992
7,CCn1c(SCC(=O)Nc2ccc(C(=O)OC)cc2)nc2cccnc21,-0.121
8,Cn1cc(Br)c(C(=O)NC2CCCCC2)n1,0.405
9,CCN(C(=O)CCN1C(=O)c2ccccc2C1=O)C1CCCCC1,0.156
10,COc1ccc(S(=O)(=O)Nc2ccccc2-c2nnn(CC(=O)Nc3ccccc3OC)n2)cc1,-0.0696
11,c1ccc2[nH]c(CN3CCCCC3)nc2c1,-0.295
12,CN(C)S(=O)(=O)c1cccc(C(=O)Nc2ccccc2[N+](=O)[O-])c1,-0.148
13,COc1ccc(-c2nnc(SCc3cccc(C)c3)n2N)cc1,-0.0565
14,CC(C)CC(=O)NN(C)c1nc(-c2ccccc2)nnc1C(F)(F)F,0.0396
15,O=C(O)/C=C/C(=O)NNC(=O)c1ccccc1Br,-0.0897
16,COc1ccccc1NC(=O)CSc1nnc(Cc2ccccc2)o1,-0.0662
17,Cc1ccc(S(=O)(=O)N(C)C)cc1NC(=O)/C=C/c1cccs1,-0.153
18,CC(Sc1sc(=S)sc1SC(C)C(=O)O)C(=O)O (centres undefined),-0.203
19,CSc1n[nH]c(NCc2ccc(C)cc2)n1,0.112
20,Cn1c(N)c(C(=O)COC(=O)C2(c3ccc(Cl)cc3)CCCC2)c(=O)n(C)c1=O,-2.63
21,CCOC(=O)C1=C(C)Nc2sc(C(=O)c3ccc(F)cc3)c(N)c2C1c1ccc(C(=O)OC)cc1 (centres undefined),-0.111
22,CCOC(=O)C1CCN(C(=O)c2ccccc2N(C)S(=O)(=O)c2ccccc2)CC1,-0.309
23,Cc1nn(Cc2ccccc2Cl)c(C)c1C(=O)NCCN1C(=O)S/C(=C\c2ccccc2)C1=O,-0.335

row,Compound,z-score
1,O=C(N/N=C/c1ccco1)c1ccc(N2CCCC2=O)cc1,-0.293
2,COC(=O)c1sc(N)c(C(=O)OC)c1COC(=O)C1CC(=O)N(Cc2ccco2)C1 (centres undefined),0.0251
3,CCCCOC(=O)CCn1[nH]c(=O)c2ccccc2c1=O,-0.399
4,Cc1occc1C(=O)NN=C1C2CC3CC(C2)CC1C3,0.478
5,O=C(Nc1nnc(CSCc2ccc(F)cc2)s1)c1ccc([N+](=O)[O-])cc1,2.51
6,CC1(C(=O)O)Cc2ccccc2C(=O)O1 (centres undefined),-0.247
7,CCSc1nc(-c2ccc(OC)cc2)cc(-c2ccc(OC)cc2)c1C#N,0.0973
8,CN(C)[C@H]1N(C(=O)c2ccc(Br)cc2)N=C2c3ccccc3S(=O)(=O)N21,-0.127
9,Cc1cc(C)nc(SCc2n[nH]c(=S)n2C)n1,-0.361
10,COC(=O)c1sc(NC(=S)NC(=O)c2cccc(C)c2)nc1C,active: 4.51
11,CCN(CC)S(=O)(=O)c1ccc(NS(=O)(=O)c2cccc(C)c2)cc1,0.708
12,CC(=O)N(C(C)=O)c1cccc2c(N(C(C)=O)C(C)=O)cccc12,0.373
13,CC(C(=O)NC1=NCCS1)N1C(=O)C2CC=CCC2C1=O (centres undefined),-1.7
14,COc1ccc(C)cc1S(=O)(=O)NCCC1=CCCCC1,-0.147
15,CCc1nnc(N/N=C/c2c(Cl)cccc2Cl)n1N,0.00606
16,Cn1c(CNC(=O)c2ccc(Cl)cc2)nnc1SCC(=O)Nc1sc2c(c1C#N)CCCC2,0.356
17,COc1ccccc1/C=C/C=N/N1CCN(Cc2cccc3ccccc23)CC1,-0.494
18,CCCCc1c(C)nc2ccc(Br)cc2c1SCCC#N,-0.487
19,CN1CCN(C(N)=NC(=O)c2ccccc2)CC1,-0.332
20,O=C(C1CCC1)N1CCN(Cc2ccccc2)CC1,-0.147
21,COc1cccc(N2CCN(Cc3ccsc3)CC2)c1,-0.411
22,CCOC(=O)c1c(C)[nH]c(C(=O)COC(=O)CNC(=O)c2ccc(Br)cc2)c1C,-0.279
